# Some of the results follow.
# B1: PkBDPgamma (Plasmodium knowlesi) (protein)
# chain: SAINQIFLQNNVMDKCNDKRKRGERDWDCPTEKDVCIPDRRYQLCMMEITNLVDTDTHFHSDIIFRKSYSRRRLIYDVGGRGDLLLKKYNNVYSEDLCKDIKWSLQDFGDIIMGTDMEGIGYSLVVQNNLRSIFGTGTSAELDRKKWWNDHKKDIWKAMILSVKEKNRYSAWNCKEDVQIKVEPQIYRWIREWGRDYMSEFREQRRKLNEKCEDKLYYSTMLICTLPPCNNACKSYDEWITGKKKQWDVLSTKFSSVKKAQKIETENIARAYDILKQELNGFNEVTFENEINKRDKLYNYFCVCIVQEARKNTQENVKNVGSGVESKAPSSNPINEAVKSSSGEGKVQEDSAHRSVNEGEGKSSTNEADPGSQPGAAASGGGSGGGTGGGVDLAPQMLRELQETNAALQDVRELLRQQVKEITFLKNTVMECDACGGPLDRNLPPLAPLGPTGGWSHPQFEK
# Legend:
# Assay in all cases: glycan array binding signal (z-score within array); higher = stronger binding
# Details in all cases: glycan notation: IUPAC condensed, linker removed
# Neu5Ac(a2-8)Neu5Ac = molecular target: Neu5Ac(a2-8)Neu5Ac
# In short: (§1)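 Glycan array data were curated from 3228 arrays in the Consortium for Functional Glycomics database and kept only where the protein sequence was available. Glycan names were converted to IUPAC-condensed notation, and columns mapping to the same glycan were averaged. The binding signal is a within-array Z-score, averaged across arrays of the same protein sequence at different concentrations or buffers and across linkers. Negative Z-scores can be read as non-binding.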
# [1] = molecular target: Neu5Ac(a2-8)Neu5Ac(a2-3)Gal(b1-3)GalNAc(b1-4)[Neu5Ac(a2-3)]Gal(b1-4)Glc
# In short: as §1
# [2] = molecular target: Neu5Ac(a2-8)Neu5Ac(a2-3)Gal(b1-3)GalNAc(b1-4)[Neu5Ac(a2-8)Neu5Ac(a2-3)]Gal(b1-4)Glc
# In short: as §1
# [3] = molecular target: Neu5Ac(a2-8)Neu5Ac(a2-3)Gal(b1-4)Glc
# In short: as §1
# [4] = molecular target: Neu5Ac(a2-8)Neu5Ac(a2-3)Gal(b1-4)GlcNAc
# In short: as §1
# [5] = molecular target: Neu5Ac(a2-8)Neu5Ac(a2-3)[Gal(b1-3)GalNAc(b1-4)]Gal(b1-4)Glc
# In short: as §1
# [6] = molecular target: Neu5Ac(a2-8)Neu5Ac(a2-3)[GalNAc(b1-4)]Gal(b1-4)Glc
# In short: as §1
# [7] = molecular target: Neu5Ac(a2-8)Neu5Ac(a2-8)Neu5Ac
# In short: as §1
# [8] = molecular target: Neu5Ac(a2-8)Neu5Ac(a2-8)Neu5Ac(a2-3)Gal(b1-4)Glc
# In short: as §1
# [9] = molecular target: Neu5Ac(a2-8)Neu5Ac(a2-8)Neu5Ac(a2-3)[Gal(b1-3)GalNAc(b1-4)]Gal(b1-4)Glc
# In short: as §1
# [10] = molecular target: Neu5Ac(a2-8)Neu5Ac(a2-8)Neu5Ac(a2-3)[GalNAc(b1-4)]Gal(b1-4)Glc
# In short: as §1
# [11] = molecular target: Neu5Ac(a2-8)Neu5Ac(a2-8)Neu5Ac(a2-8)Neu5Ac(a2-3)[GalNAc(b1-4)]Gal(b1-4)Glc
# In short: as §1
# [12] = molecular target: Neu5Ac(a2-8)Neu5Gc(a2-3)Gal(b1-4)GlcNAc
# In short: as §1
# [13] = molecular target: Neu5Ac(b2-6)Gal(b1-4)GlcNAc
# In short: as §1
# Neu5Ac(b2-6)GalNAc = molecular target: Neu5Ac(b2-6)GalNAc
# In short: as §1
# [14] = molecular target: Neu5Ac9Ac(a2-3)Gal(b1-3)GlcNAc
# In short: as §1
# [15] = molecular target: Neu5Ac9Ac(a2-3)Gal(b1-4)GlcNAc
# In short: as §1
# [16] = molecular target: Neu5Ac9Ac(a2-6)Gal(b1-4)GlcNAc
# In short: as §1
# [17] = molecular target: Neu5Gc(a2-3)Gal(b1-3)GlcNAc
# In short: as §1
# [18] = molecular target: Neu5Gc(a2-3)Gal(b1-3)[Fuc(a1-4)]GlcNAc
# In short: as §1
# Neu5Gc(a2-3)Gal(b1-4)Glc = molecular target: Neu5Gc(a2-3)Gal(b1-4)Glc
# In short: as §1
# [19] = molecular target: Neu5Gc(a2-3)Gal(b1-4)GlcNAc
# In short: as §1
# [20] = molecular target: Neu5Gc(a2-3)Gal(b1-4)GlcNAc(b1-3)Gal(b1-4)GlcNAc(b1-2)Man(a1-3)[Neu5Gc(a2-3)Gal(b1-4)GlcNAc(b1-3)Gal(b1-4)GlcNAc(b1-2)Man(a1-6)]Man(b1-4)GlcNAc(b1-4)GlcNAc
# In short: as §1
# [21] = molecular target: Neu5Gc(a2-3)Gal(b1-4)[Fuc(a1-3)]GlcNAc
# In short: as §1
# [22] = molecular target: Neu5Gc(a2-6)Gal(b1-4)GlcNAc
# In short: as §1
# Neu5Gc(a2-6)GalNAc = molecular target: Neu5Gc(a2-6)GalNAc
# In short: as §1
# [23] = molecular target: Neu5Gc(a2-8)Neu5Ac(a2-3)Gal(b1-4)GlcNAc
# In short: as §1
# [24] = molecular target: Neu5Gc(a2-8)Neu5Gc(a2-3)Gal(b1-4)GlcNAc
# In short: as §1
# [25] = molecular target: Neu5Gc(a2-8)Neu5Gc(a2-3)Gal(b1-4)GlcNAc(b1-3)Gal(b1-4)GlcNAc
# In short: as §1
# [26] = molecular target: Neu5Gc(a2-8)Neu5Gc(a2-6)Gal(b1-4)GlcNAc
# In short: as §1
# [27] = molecular target: Neu5Gc(b2-6)Gal(b1-4)GlcNAc
# In short: as §1
binder,measurement,setting,value
B1,glycan array binding signal (z-score),Neu5Ac(a2-8)Neu5Ac,-0.027
same,glycan array binding signal (z-score),[1],0.163
same,glycan array binding signal (z-score),[2],0.431
same,glycan array binding signal (z-score),[3],0.281
same,glycan array binding signal (z-score),[4],0.25
same,glycan array binding signal (z-score),[5],-0.391
same,glycan array binding signal (z-score),[6],0.219
same,glycan array binding signal (z-score),[7],-0.324
same,glycan array binding signal (z-score),[8],-0.453
same,glycan array binding signal (z-score),[9],-0.052
same,glycan array binding signal (z-score),[10],-0.246
same,glycan array binding signal (z-score),[11],0.102
same,glycan array binding signal (z-score),[12],-0.44
same,glycan array binding signal (z-score),[13],-0.195
same,glycan array binding signal (z-score),Neu5Ac(b2-6)GalNAc,-0.319
same,glycan array binding signal (z-score),[14],-0.168
same,glycan array binding signal (z-score),[15],-0.299
same,glycan array binding signal (z-score),[16],-0.31
same,glycan array binding signal (z-score),[17],-0.03
same,glycan array binding signal (z-score),[18],0.268
same,glycan array binding signal (z-score),Neu5Gc(a2-3)Gal(b1-4)Glc,-0.201
same,glycan array binding signal (z-score),[19],-0.478
same,glycan array binding signal (z-score),[20],20.7
same,glycan array binding signal (z-score),[21],0.241
same,glycan array binding signal (z-score),[22],-0.113
same,glycan array binding signal (z-score),Neu5Gc(a2-6)GalNAc,-0.36
same,glycan array binding signal (z-score),[23],-0.479
same,glycan array binding signal (z-score),[24],-0.297
same,glycan array binding signal (z-score),[25],0.22
same,glycan array binding signal (z-score),[26],0.062
same,glycan array binding signal (z-score),[27],-0.003
